# Laboratory results reported in PMC4336329 (PLoS ONE, 2015).
# The campaign covered roughly 310,000 compounds. About 14,000 (4.5%) showed an effect of 50% or more. Effects have a minus sign here. The list shows a part of the results.
# Target: human ether-à-go-go-related gene (hERG) potassium channel (human, UniProt Q12809)
# Assay: primary screen, population patch clamp on CHO cells stably expressing hERG
# 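Also: peak tail current of the secondary pulse compared with the same well before compound.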
# human ether-à-go-go-related gene (hERG) potassium channel, sequence (Q12809 whole entry, looked up): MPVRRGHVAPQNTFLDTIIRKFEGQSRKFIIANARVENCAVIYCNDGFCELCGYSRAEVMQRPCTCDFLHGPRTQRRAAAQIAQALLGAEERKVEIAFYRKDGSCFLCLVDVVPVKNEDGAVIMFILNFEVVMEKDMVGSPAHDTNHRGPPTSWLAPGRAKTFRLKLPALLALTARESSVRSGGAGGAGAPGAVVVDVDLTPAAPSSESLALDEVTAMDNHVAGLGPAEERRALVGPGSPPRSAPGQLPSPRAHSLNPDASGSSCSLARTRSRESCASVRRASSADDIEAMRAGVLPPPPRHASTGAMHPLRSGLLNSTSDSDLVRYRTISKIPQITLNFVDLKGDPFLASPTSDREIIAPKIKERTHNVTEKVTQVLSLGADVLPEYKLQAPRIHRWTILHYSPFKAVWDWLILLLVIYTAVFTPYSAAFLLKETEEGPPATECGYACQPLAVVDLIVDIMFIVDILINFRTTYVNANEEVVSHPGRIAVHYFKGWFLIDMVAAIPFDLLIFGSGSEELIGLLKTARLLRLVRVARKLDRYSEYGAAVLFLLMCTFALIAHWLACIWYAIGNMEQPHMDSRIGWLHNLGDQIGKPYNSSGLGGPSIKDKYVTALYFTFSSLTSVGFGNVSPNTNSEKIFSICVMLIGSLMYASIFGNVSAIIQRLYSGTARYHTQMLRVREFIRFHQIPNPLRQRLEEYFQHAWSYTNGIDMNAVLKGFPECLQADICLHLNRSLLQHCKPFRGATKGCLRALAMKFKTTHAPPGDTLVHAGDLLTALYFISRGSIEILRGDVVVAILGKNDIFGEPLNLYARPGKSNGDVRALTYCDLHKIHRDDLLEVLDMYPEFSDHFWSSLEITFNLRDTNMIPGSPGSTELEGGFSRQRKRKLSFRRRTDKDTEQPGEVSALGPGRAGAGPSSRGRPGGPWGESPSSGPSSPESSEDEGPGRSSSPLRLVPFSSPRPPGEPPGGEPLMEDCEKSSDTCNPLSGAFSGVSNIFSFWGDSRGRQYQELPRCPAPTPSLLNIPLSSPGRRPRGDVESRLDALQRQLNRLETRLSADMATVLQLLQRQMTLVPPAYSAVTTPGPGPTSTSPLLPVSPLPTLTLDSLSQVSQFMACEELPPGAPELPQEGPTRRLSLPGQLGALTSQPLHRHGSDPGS
row,Compound,"hERG current change (%, negative = inhibition) at 10uM [%]"
1,Cc1ccc(C(=O)NC(=C(Cl)Cl)S(=O)(=O)c2ccccc2)cc1,15.4
2,COc1ccc(OC)c(N2C(=O)NC(=O)C(CCc3ccncc3)(CCc3ccncc3)C2=O)c1,-41.2
3,Cc1ccc(C(=O)Cn2cnc3ccccc3c2=O)cc1C,2.57
4,O=C(Cc1noc2ccccc12)Nc1ccccn1,6.57
5,O=C(OCC(=O)c1ccc(Cl)cc1Cl)c1ccc2c(c1)C(=O)N(c1cccc3ncccc13)C2=O,4.97
6,Cc1cc(NC(=O)CSc2nc3ccccc3c(=O)n2C2CCCC2)no1,-4.71
7,CCOC(=O)c1cnn(-c2nc(CC)nc3sc4c(c23)CCC4)c1N,8.44
8,Cc1cc2ccccn2c1C(C[N+](=O)[O-])c1ccc(N(C)C)cc1 (stereo not shown),24.1
9,S=C1NC2(CCCCC2)NN1c1ccccc1,-7.66
10,COc1ccc(C(=O)C2CCCN(C3CSCCSC3)C2)c(C)c1 (stereo not shown),-13
11,CC(=O)Nc1ccc(NC(=O)CCCCCN2C(=O)c3ccccc3C2=O)cc1,-1.63
12,NC(=O)NC(=O)COC(=O)[C@H](Cc1ccccc1)NC(=O)c1cccs1,4.21
13,CCOC(=O)C1CCCN(C(=O)c2ccc(CS(=O)(=O)c3ccc(Br)cc3)o2)C1 (stereo not shown),-38.8
14,COc1ccccc1N1CCN(C(=O)c2cc3cc(Cl)ccc3[nH]2)CC1,5.58
15,COc1cc(Cc2[nH+]ccc3cc(OC)c(OC)cc23)c(S(=O)(=O)[O-])cc1OC,11.6
16,O=C(CSc1ncccn1)N/N=C/c1cccs1,5.75
17,COC(=O)c1[nH]c(C)c(/C(O)=C2\C(=O)C(=O)N(CCN(C)C)C2c2cccc(OC)c2OC)c1C (stereo not shown),15.1
18,COc1ccc(S(=O)(=O)N2CCCOC2CNC(=O)C(=O)NCc2ccccc2F)cc1C (stereo not shown),15.4
19,COc1ccc(COC[C@H](C)[C@H](O)[C@@H](C)[C@H]2OC(=O)[C@@H]2C)cc1,13.6
20,CCN(CC)CCN(CC(=O)N(C1CCCCC1)C1CCCCC1)C(=O)c1cccnc1.Cl.O,-71.9
21,O=C(NC1CCN(C(=O)Nc2cccc(F)c2)CC1)c1ccco1,-9.05
22,CC(Oc1cccc(Br)c1)C(=O)N1CCCN(C)CC1 (stereo not shown),-7.34
23,CC1(C)C(=O)OC(c2c3ccccc3cc3ccccc23)C(C)(C)C1=O (stereo not shown),-10.3
24,CN1CCN(CCCNC(=O)c2ccc(CS(=O)(=O)c3ccc(Br)cc3)o2)CC1,-10.3
25,CN(C)N1C(N)=C(C#N)C(c2cccnc2)C2=C1CCCC2=O (stereo not shown),-9.73
26,Cc1nc2sc(C)c(C)c2c(=O)[nH]1,13.7
27,CCC(=O)Nc1ccc(N2CCCCC2)cc1,19.6
28,COC(=O)COc1c(/C=C\c2nc(O)c([N+](=O)[O-])c(=O)[nH]2)cccc1OC,8.99

row,Compound,"hERG current change (%, negative = inhibition) at 10uM [%]"
1,COc1nccnc1NS(=O)(=O)c1ccc(NCc2cc(Br)ccc2O)cc1,-12.6
2,COc1ccc(NC(=O)/C=C/c2cccc(Br)c2)cn1,-3.16
3,CC(C)(C)c1ccc(CN(Cc2ccco2)Cc2nnnn2C2CCCC2)cc1,7.72
4,CC1CC(=O)Nc2ccccc2N1S(=O)(=O)c1ccc(Cl)cc1 (stereo not shown),13.4
5,COC(=O)C1C(O)=C(C=NCc2ccccc2)C(=O)CC1(C)C (stereo not shown),-5.13
6,COc1cc2c(cc1NC(=O)c1ccco1)CCCC2,-25.5
7,CCOC(=O)c1[nH]c2ccc(OC)cc2c1NC(=S)N1CCN(c2ccc(F)cc2)CC1,3.84
8,COc1ccccc1NC(=S)NC1CCC(CC2CCC(NC(=S)Nc3ccccc3OC)CC2)CC1 (stereo not shown),4.75
9,Cc1ccc(NC(=O)NC(=O)CSc2n[nH]c(N)n2)c(C)c1,25.9
10,CCC(=O)N/C(=N/c1nc(C)cc(C)n1)Nc1ccccc1,-39.4
11,O=c1[nH]c2ccccc2n1C1=CCCC1,-6.36
12,CS(=O)(=O)c1ccc(Cl)c(NC(=O)COC(=O)c2c(Cl)cccc2Cl)c1,-5.85
13,CC(C)(C)NC(=O)CN(C(=O)c1csnn1)c1ccccc1-c1ccccc1,14.4
14,COc1ccc(-c2noc(-c3cc(C)cc(C)c3)n2)cc1OC,9.97
15,CN(C)c1ccc(C(=O)NN2C(=O)c3ccccc3C2=O)cc1,28
16,CCOC(=O)N1CCN(C(=O)NC23CC4CC(CC(C4)C2)C3)CC1,10
17,COC(=O)C1CCN(Cc2ccc(OCCCN3CCN(c4ccc([N+](=O)[O-])cc4)CC3)cc2)CC1,-73.7
18,CNC(=S)N1CCN(C(=O)C2CCCO2)CC1 (stereo not shown),8.38
19,CC(C)C(C)NC(=O)COc1ccc(Sc2ccc(OCC(=O)NC(C)C(C)C)cc2)cc1 (stereo not shown),-18.3
20,CC[C@@H]1C(=O)OC[C@@H]1Cc1cncn1C.O=[N+]([O-])O,8.55
21,Cn1c(=O)c2cc(S(=O)(=O)NC(C(=O)N3CCCCCC3)c3ccccc3)ccc2n(C)c1=O (stereo not shown),-22.6
22,O=C(CSc1ncnc2[nH]ncc12)Nc1cccc(Oc2ccccc2)c1,8.64
23,COc1ccc(Cc2nnc3sc(SCC(=O)Nc4ccccc4)nn3c2=O)cc1OC,1.23
24,CC1=C(C#N)C(/C=N/OCc2ccc(Cl)cc2)CC(=O)N1 (stereo not shown),-34.1
25,CN1C(=O)/C(=C/c2ccc(OCc3ccc(C(=O)O)cc3)c(Cl)c2)NC1=S,20.4
26,COc1ccc(OC)c(Nc2ncnc3c2cnn3-c2ccccc2)c1,-3.61
27,CC(NC(=O)c1cc2ccccc2o1)c1ccccc1 (stereo not shown),-4.8
